# Source: a collection of fitness landscapes (doi:10.1126/science.1257360)
# The other results are listed elsewhere or left out.
# B1: PhoQ; a variant is named by its letters at X, in order, P23837 (parent)
# chain: MKKLLRLFFPLSLRVRFLLATAAVVLVLSLAYGMVALIGYSVSFDKTTFRLLRGESNLFYTLAKWENNKLHVELPENIDKQSPTMTLIYDENGQLLWAQRDVPWLMKMIQPDWLKSNGFHEIEADVNDTSLLLSGDHSIQQQLQEVREDDDDAEMTHSVAVNVYPATSRMPKLTIVVVDTIPVELKSSYMVWSWFIYVLSANLLLVIPLLWVAAWWSLRPIEALAKEVRELEEHNRELLNPATTRELTSLVRNLNRLLKSERERYDKYRTTLTDLTHSLKTPLXXLQXXLRSLRSEKMSVSDAEPVMLEQISRISQQIGYYLHRASMRGGTLLSRELHPVAPLLDNLTSALNKVYQRKGVNISLDISPEISFVGEQNDFVEVMGNVLDNACKYCLEFVEISARQTDEHLYIVVEDDGPGIPLSKREVIFDRGQRVDTLRPGQGVGLAVAREITEQYEGKIVAGESMLGGARMEVIFGRQHSAPKDE
# Variants of: B1
# Assay: enrichment ratio after two sorts for PhoP signalling (ratio (wild type AVST 3.29)); higher = more functional
# Settings: with PhoP (E. coli)
row,Variant,enrichment ratio
1,NVSH,≤ 0.25
2,WAHI,≤ 0.25
3,WQCR,≤ 0.25
4,LLFN,≤ 0.25
5,MFTA,≤ 0.25
6,VFEF,≤ 0.25
7,DCDG,≤ 0.25
8,LYWG,≤ 0.25
9,LDVM,≤ 0.25
10,LSQA,≤ 0.25
11,HWVC,≤ 0.25
12,RRKR,≤ 0.25
13,SSIN,6.9
14,AARS,≤ 0.25
15,PYKE,≤ 0.25
16,ALFC,≤ 0.25
17,VQGY,≤ 0.25
18,SWYS,≤ 0.25
19,HMPF,≤ 0.25
20,DHTE,≤ 0.25
21,WKDI,≤ 0.25
22,RDEW,≤ 0.25
23,PANE,≤ 0.25
24,YQID,≤ 0.25
25,PFAW,≤ 0.25

row,Variant,enrichment ratio
1,DIMC,≤ 0.25
2,QWRS,≤ 0.25
3,YTYI,≤ 0.25
4,PEFN,≤ 0.25
5,AYYP,≤ 0.25
6,WMRM,≤ 0.25
7,PGQF,≤ 0.25
8,EEVT,≤ 0.25
9,SDYV,≤ 0.25
10,MQRV,≤ 0.25
11,SDAD,≤ 0.25
12,YTLT,≤ 0.25
13,QSRE,≤ 0.25
14,EAPG,≤ 0.25
15,HKWK,≤ 0.25
16,MLTM,4.75
17,KCSE,≤ 0.25
18,QRIM,≤ 0.25
19,NTHV,≤ 0.25
20,RIKL,≤ 0.25
21,WSRF,≤ 0.25
22,IEMH,≤ 0.25
23,WEPG,≤ 0.25
24,QLFF,≤ 0.25
25,MPPS,≤ 0.25

row,Variant,enrichment ratio
1,IPRY,≤ 0.25
2,HEVC,≤ 0.25
3,VGRN,≤ 0.25
4,IMVK,≤ 0.25
5,LFCD,≤ 0.25
6,AMAP,0.595
7,VNNV,≤ 0.25
8,GGSG,≤ 0.25
9,HRVS,≤ 0.25
10,RSLQ,≤ 0.25
11,LQVE,≤ 0.25
12,TEGD,≤ 0.25
13,SKHH,≤ 0.25
14,FHEG,≤ 0.25
15,NFYS,≤ 0.25
16,GPKF,≤ 0.25
17,QPNY,≤ 0.25
18,PAGD,≤ 0.25
19,VVWR,≤ 0.25
20,DCIK,≤ 0.25
21,MFHV,≤ 0.25
22,QTLK,≤ 0.25
23,LMWS,≤ 0.25
24,SAGV,7.24
25,LGEE,≤ 0.25

row,Variant,enrichment ratio
1,TMWI,≤ 0.25
2,RSNV,≤ 0.25
3,ITPE,≤ 0.25
4,WVSQ,≤ 0.25
5,VFMY,≤ 0.25
6,RQLT,≤ 0.25
7,MSAF,3.4
8,HGNG,≤ 0.25
9,TMCA,8.5
10,RAYF,≤ 0.25
11,ENAL,≤ 0.25
12,VRTG,≤ 0.25
13,LSTT,≤ 0.25
14,PFMN,≤ 0.25
15,ADLR,2.2
16,TDTM,≤ 0.25
17,VVSD,≤ 0.25
18,AGAG,≤ 0.25
19,VYYR,≤ 0.25
20,EDST,≤ 0.25
21,RFVQ,≤ 0.25
22,SDDA,≤ 0.25
